Test results: the supplement of paper PMC9151546
Single values are uncertain, as repeats are few or missing.

Experiments:
CHO-K1 [1] = experiment: hypodiploid nuclei frequency (% of nucleated events); higher = more hypodiploid events (aneugenic)
Protocol: (§1)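 Flow-cytometric in vitro micronucleus assay (Litron MicroFlow) in CHO-K1 cells in 96-well plates, 19 concentrations (4.5-200 µM, n=1 per concentration). Without S9, cells were exposed for 24 h and sampled at 48 h. With Aroclor 1254-induced rat liver S9, cells were exposed for 3-4 h and sampled at 27-28 h. Read-outs are %MN and %hypodiploid nuclei relative to nucleated events, and relative survival as the nuclei-to-bead ratio versus the 1% DMSO vehicle control (x100).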

CHO-K1 [2] = experiment: relative survival (nuclei to bead ratio vs DMSO control) (% of vehicle control); higher = more surviving cells
Protocol: as §1

CHO-K1 [3] = experiment: micronucleus frequency (% of nucleated events); higher = more micronuclei (genotoxic)
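Wherever hypodiploid nuclei frequency (% of nucleated events) is given: hypodiploid nuclei gated on a flow cytometer with 488 nm excitation after SYTOX Green staining, cultures at 37 °C, positive controls vinblastine without S9 and cyclophosphamide with S9.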
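Wherever micronucleus frequency (% of nucleated events) is given: cells lysed with nuclei stained by SYTOX Green, then micronucleus-gated events counted against nucleated events by flow cytometry with 488 nm excitation.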
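Wherever relative survival (nuclei to bead ratio vs DMSO control) is given: Lysed-cell nuclei stained with SYTOX Green and counted against counting beads by flow cytometry at 488 nm excitation, with vinblastine (no S9) and cyclophosphamide (plus S9) as positive controls.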

O=c1ccc2ccccc2o1 [Coumarin]
Conditions	hypodiploid nuclei frequency, CHO-K1 [1] [%]	micronucleus frequency, CHO-K1 [3] [%]	relative survival, CHO-K1 [2]
concentration: 4.5 (µM), S9 metabolic activation: with S9, exposure time: 3-4 hours	0.3	1.82	87.4
concentration: 4.5 (µM), S9 metabolic activation: without S9, exposure time: 24 hours	0.36	0.74	106
concentration: 5.63 (µM), S9 metabolic activation: with S9, exposure time: 3-4 hours	0.23	1.38	73.3
concentration: 5.63 (µM), S9 metabolic activation: without S9, exposure time: 24 hours	0.7	2.3	85
concentration: 7.04 (µM), S9 metabolic activation: with S9, exposure time: 3-4 hours	0.2	1.66	77.1
concentration: 7.04 (µM), S9 metabolic activation: without S9, exposure time: 24 hours	0.72	2.16	89.4
concentration: 8.8 (µM), S9 metabolic activation: with S9, exposure time: 3-4 hours	0.28	1.36	73.5
concentration: 8.8 (µM), S9 metabolic activation: without S9, exposure time: 24 hours	0.48	2.6	90.5
concentration: 11 (µM), S9 metabolic activation: with S9, exposure time: 3-4 hours	0.18	1.62	76.1
concentration: 11 (µM), S9 metabolic activation: without S9, exposure time: 24 hours	0.6	1.36	91.6
concentration: 13.7 (µM), S9 metabolic activation: with S9, exposure time: 3-4 hours	0.16	1.56	75.5
concentration: 13.7 (µM), S9 metabolic activation: without S9, exposure time: 24 hours	1.02	3.1	93.8
concentration: 17.2 (µM), S9 metabolic activation: with S9, exposure time: 3-4 hours	0.16	1.48	88.9
concentration: 17.2 (µM), S9 metabolic activation: without S9, exposure time: 24 hours	0.76	1.94	94.6
concentration: 21.5 (µM), S9 metabolic activation: with S9, exposure time: 3-4 hours	0.16	1.38	91.1
concentration: 21.5 (µM), S9 metabolic activation: without S9, exposure time: 24 hours	0.58	2.8	84.1
concentration: 26.8 (µM), S9 metabolic activation: with S9, exposure time: 3-4 hours	0.24	2.34	90.6
concentration: 26.8 (µM), S9 metabolic activation: without S9, exposure time: 24 hours	1.18	2.68	93.5
concentration: 33.6 (µM), S9 metabolic activation: with S9, exposure time: 3-4 hours	0.44	2.46	79.4
concentration: 33.6 (µM), S9 metabolic activation: without S9, exposure time: 24 hours	0.9	2.66	100
concentration: 41.9 (µM), S9 metabolic activation: with S9, exposure time: 3-4 hours	0.32	2.36	82.5
concentration: 41.9 (µM), S9 metabolic activation: without S9, exposure time: 24 hours	1.02	2.7	101
concentration: 52.4 (µM), S9 metabolic activation: with S9, exposure time: 3-4 hours	0.14	1.54	90.6
concentration: 52.4 (µM), S9 metabolic activation: without S9, exposure time: 24 hours	0.82	3.2	107
concentration: 65.5 (µM), S9 metabolic activation: with S9, exposure time: 3-4 hours	0.42	2.58	92
concentration: 65.5 (µM), S9 metabolic activation: without S9, exposure time: 24 hours	0.96	3.06	97.5
concentration: 81.9 (µM), S9 metabolic activation: with S9, exposure time: 3-4 hours	0.36	2	84.4
concentration: 81.9 (µM), S9 metabolic activation: without S9, exposure time: 24 hours	1.06	2.32	102
concentration: 102 (µM), S9 metabolic activation: with S9, exposure time: 3-4 hours	0.5	2.58	84.8
concentration: 102 (µM), S9 metabolic activation: without S9, exposure time: 24 hours	1.12	3.44	97.5
concentration: 128 (µM), S9 metabolic activation: with S9, exposure time: 3-4 hours	0.26	1.42	94.6
concentration: 128 (µM), S9 metabolic activation: without S9, exposure time: 24 hours	1.14	1.9	108
concentration: 160 (µM), S9 metabolic activation: with S9, exposure time: 3-4 hours	0.38	1.76	88.9
concentration: 160 (µM), S9 metabolic activation: without S9, exposure time: 24 hours	1.24	3.82	91.9
concentration: 200 (µM), S9 metabolic activation: with S9, exposure time: 3-4 hours	0.4	1.92	74
concentration: 200 (µM), S9 metabolic activation: without S9, exposure time: 24 hours	1.62	2.2	93.1
